# Laboratory results as given in the antibiotic and cytotoxicity screens of Wong et al. (2023).
# Some of the results follow.
# System: HepG2
# Assay: cytotoxicity call (relative viability < 0.9)
# Details: 10 µM
row,SMILES,cytotoxicity call
1,COc1ccc(CN(C)C[C@@H]2OCCCC[C@@H](C)Oc3ccc(NC(=O)c4ccccc4)cc3C(=O)N([C@H](C)CO)C[C@@H]2C)cc1,inactive
2,C[C@@H]1CN([C@@H](C)CO)C(=O)c2cccc(NC(=O)NC3CCCCC3)c2O[C@@H]1CN(C)C(=O)Nc1cccc2ccccc12,inactive
3,COc1ccc(NC(=O)Nc2ccc3c(c2)C(=O)N([C@H](C)CO)C[C@@H](C)[C@@H](CN(C)C(=O)Nc2ccc(OC)cc2)OCCCC[C@@H](C)O3)cc1,inactive
4,COc1ccc(NC(=O)N(C)C[C@@H]2OCCCC[C@H](C)Oc3ccc(NC(=O)Cc4ccccc4)cc3C(=O)N([C@@H](C)CO)C[C@@H]2C)cc1,inactive
5,CC=Cc1ccc2n(c1=O)C[C@@H]1[C@@H](CO)[C@H](C(=O)NC3CCC3)N(S(C)(=O)=O)[C@H]21,inactive
6,Cc1ccc(OC(=O)n2c3ccccc3c3ccccc32)cc1,inactive
7,C[C@@H]1CN([C@@H](C)CO)S(=O)(=O)c2ccc(C#CC(C)(C)O)cc2O[C@H]1CN(C)Cc1ccncc1,inactive
8,C[C@@H]1CN([C@H](C)CO)C(=O)Cc2cc(NC(=O)CCN3CCOCC3)ccc2O[C@H]1CN(C)C(=O)Nc1ccc(F)cc1,inactive
9,Cc1noc(C)c1S(=O)(=O)Nc1ccc2c(c1)C(=O)N([C@H](C)CO)C[C@@H](C)[C@@H](CN(C)CC1CCCCC1)OCCCC[C@H](C)O2,inactive
10,CCS(=O)(=O)Nc1ccc2c(c1)C(=O)N(C)[C@H]1CC[C@H](CC(=O)Nc3ccccc3C)O[C@@H]1CO2,inactive
11,C[C@H](CO)N1C[C@H](C)[C@@H](CN(C)Cc2ccc(Cl)c(Cl)c2)OCCCC[C@H](C)Oc2ccc(NC(=O)Nc3ccc4c(c3)OCO4)cc2C1=O,inactive
12,COCC(=O)Nc1ccc2c(c1)OC[C@H](C)N(C(=O)Cc1cccnc1)C[C@@H](C)[C@@H](OC)CN(C)C2=O,inactive
13,C[C@H]1CN([C@@H](C)CO)C(=O)c2cccc(NC(=O)CCCCCC(=O)Nc3ccccc3N)c2O[C@@H]1CN(C)CC1CCCCC1,active
14,CO[C@@H]1CN(C)C(=O)c2ccc(NC(=O)c3ccccc3)cc2OC[C@@H](C)N(C(=O)CN(C)C)C[C@@H]1C,inactive
15,Cc1noc(C)c1NC(=O)N(C)C[C@H]1OCCCC[C@H](C)Oc2ccc(NC(=O)C3CCCCC3)cc2C(=O)N([C@@H](C)CO)C[C@@H]1C,inactive
16,C[C@@H]1CN([C@@H](C)CO)C(=O)Cc2cc(NC(=O)Nc3ccc(C(F)(F)F)cc3)ccc2O[C@@H]1CN(C)CC1CCCCC1,active
17,NCC[C@H]1CC[C@@H](NC(=O)C2CCC2)[C@@H](CO)O1,inactive
18,COc1ccc(NC(=O)Nc2ccc3c(c2)C(=O)N([C@@H](C)CO)C[C@@H](C)[C@H](CN(C)Cc2ccc(C(=O)O)cc2)OCCCC[C@H](C)O3)cc1,inactive
19,C=CCC[C@@H](Cc1ccc(F)cc1)C(=O)OC[C@H]1CCCN1C(=O)[C@@H](CC=C)CC(=O)N(CCO)Cc1ccccc1,inactive
20,C[C@@H]1CN([C@@H](C)CO)C(=O)c2cc(NC(=O)C3CCCCC3)ccc2O[C@@H](C)CCCCO[C@H]1CN(C)Cc1ccccc1,inactive

row,SMILES,cytotoxicity call
1,C[C@@H]1CCCCO[C@@H](CN(C)Cc2ccc(C(F)(F)F)cc2)[C@H](C)CN([C@H](C)CO)C(=O)c2cc(NC(=O)Nc3ccc(F)cc3)ccc2O1,inactive
2,O=C(C[C@H]1CC[C@@H]2[C@H](COC[C@H](O)CN2C(=O)Nc2ccc(Cl)cc2)O1)NCCc1ccncc1,inactive
3,C[C@@H]1CN([C@@H](C)CO)C(=O)c2cc(/C=C/c3ccccc3)cnc2O[C@@H]1CN(C)C(=O)Nc1ccc(C(F)(F)F)cc1,inactive
4,C[C@H]1CN([C@@H](C)CO)S(=O)(=O)c2ccc(-c3cncnc3)cc2O[C@@H]1CN(C)C(=O)c1cccc(F)c1,inactive
5,C[C@H]1CN([C@@H](C)CO)C(=O)c2cccc(NS(C)(=O)=O)c2O[C@H]1CN(C)Cc1ccc(C(=O)O)cc1,inactive
6,COc1cc(OC)c2c(OC)c(-c3ccc4c(c3)OCO4)c(=O)oc2c1,inactive
7,O=S(=O)(Cc1ccccc1)Nn1cnnc1,inactive
8,COCC(=O)N1C[C@@H](C)[C@H](OC)CN(C)C(=O)c2cc(NC(=O)c3ccc(F)cc3)ccc2OC[C@H]1C,inactive
9,CN[C@@H]1[C@H](O[C@H]2[C@H](O[C@H]3[C@H](O)[C@@H](O)[C@H](NC(=N)N)[C@@H](O)[C@@H]3NC(=N)N)O[C@@H](C)[C@]2(O)C=O)O[C@@H](CO)[C@H](O)[C@H]1O,inactive
10,N[C@@H](Cc1ccc(O)c(O)c1)C(=O)O,inactive
11,Oc1ccc(Cl)c2c1CCC2,inactive
12,CN(C)C(=O)CN1CCCN(CCn2nc3ccccn3c2=O)CC1,inactive
13,Cc1ccc(S(=O)(=O)Nc2ccc3c(c2)CC(=O)N([C@@H](C)CO)C[C@H](C)[C@@H](CN(C)Cc2ccc(C(F)(F)F)cc2)O3)cc1,active
14,COc1cccc(S(=O)(=O)N(C)C[C@@H]2OCc3cn(nn3)CCCC(=O)N([C@@H](C)CO)C[C@H]2C)c1,inactive
15,C[C@H](CO)N1C[C@H](C)[C@H](CN(C)C(=O)Nc2cccc(C(F)(F)F)c2)OCc2ccccc2-c2c(n(C)c3ccccc23)C1=O,inactive
16,Cc1ccc(S(=O)(=O)Nc2cccc3c2O[C@@H](CN(C)S(=O)(=O)c2cn(C)cn2)[C@H](C)CN([C@H](C)CO)C3=O)cc1,inactive
17,O=C(C[C@H]1C=C[C@@H](NS(=O)(=O)c2ccccc2)[C@@H](CO)O1)NCc1ccncn1,inactive
18,C[C@H](CO)N1C[C@H](C)[C@H](CN(C)S(C)(=O)=O)Oc2ccc(NC(=O)C3CCCCC3)cc2CC1=O,inactive
19,CCCNC(=O)N(C)C[C@H]1Oc2cc(-c3ccccc3F)ccc2S(=O)(=O)N([C@H](C)CO)C[C@@H]1C,inactive
